The experiment concerns NCI-H322M lung. Put plainly: inhibition of tumour cell growth, NCI panel, 48 h.

The structures appear in SMILES notation. “And” between values parts separate entries of the source, which are not always exact repeats. Equal entries are not always repeated.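 Cultured in 96-well plates, cells were exposed to test compound for 48 hours across five concentrations. GI50 marks 50% less growth. TGI marks complete inhibition of growth.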

The compound `O=S(O)CCCCCSSc1ccc(Cl)cc1` gave a TGI greater than 100 µM.
For the compound `COc1ccc(C(=O)C(c2ccc(OC)cc2)C2(O)C(=O)Nc3c(Cl)cc(Cl)cc32)cc1` (centres undefined), the TGI came to 54.8 µM.
With `COc1cc(C(=O)/C=C/c2cccnc2Nc2ccc(Cl)cc2)cc(OC)c1OC`, the GI50 was 1.95 µM and the TGI amounted to 3.65 µM.
Take `Oc1ccc(/C=N/NC(=S)Nc2ccccc2)nc1`: the GI50 is 0.742 µM and the TGI was greater than 100 µM.
For `C=C1CC[C@@](C)(c2cc(Br)c(C)cc2OC(C)=O)[C@H]1C` the same measures were 16.1 µM and 30.1 µM.
Compound `NN/C(=N\S(=O)(=O)c1cc(S(=O)(=O)c2ccccc2)cs1)Nc1ccc(Cl)cc1` yielded a TGI greater than 100 µM.
Turning to `O=[N+]([O-])c1ccccc1S(=O)(=O)c1cccc2c1NCCC2`, the TGI was greater than 100 µM.
As for `NC(=S)NN=Cc1ccccc1OCc1cccc(COc2ccccc2C=NNC(N)=S)n1`, the TGI was greater than 100 µM.
Compound `CCc1cccc(C(C)C)c1NC(=O)C(=O)Nn1c(=S)[nH]c2ccccc2c1=O` registered a TGI greater than 100 µM.
On the same count and under the same terms, the figure for `Cc1cccc2c(N)c3cccc(C(=O)NCCNCCN)c3nc12` is 44.7 µM; for `C=C1C2CCCC1C1(S(C)(=O)=O)CCCCC21O` (centres undefined) it is greater than 100 µM.
`O=c1[nH]c(-c2ccccc2)nc2cc([N+](=O)[O-])c(/C(Cl)=C/c3ccccc3)cc12` had a TGI greater than 100 µM.
Take `Cc1ncnc2c1ccn2[C@@H]1C[C@H](Oc2cc(C(F)F)c(F)c3c2CNCC3)[C@@H](O)[C@H]1O`: the GI50 is greater than 100 µM and the TGI was greater than 100 µM.
`COc1ccc(/C=C/c2cc(O)cc(OC3OC(CO)C(O)C(O)C3O)c2)cc1O` (centres undefined) gave a TGI greater than 100 µM.
`O=C(c1ccc(Cl)c(Cl)c1)N(C(=S)OC12CC3CC(CC(C3)C1)C2)c1ccccc1` registered a TGI greater than 100 µM.
In the case of `CC[C@]1(O)CC2CN(CCc3c([nH]c4ccccc34)C(C(=O)OC)(c3cc4c(cc3OC)N(C=O)[C@H]3[C@@](O)(C(=O)OC)[C@H](OC(C)=O)[C@]5(CC)[C@@H]6C[C@@H]6CN6CC[C@]43[C@@H]65)C2)C1` (some centres undefined), the GI50 was less than 0.00325 µM and the TGI is greater than 32.5 µM.
On to `CN(C)C/C=C/C(=O)Nc1ccc(C(=O)Nc2cccc(Nc3ncc(Cl)c(-c4c[nH]c5ccccc45)n3)c2)cc1`, for which the GI50 was 0.0527 µM and the TGI was determined as 0.933 µM.
Compound `S=c1[nH]nc(COc2ccc(Cl)cc2)n1-c1ccccc1` registered a TGI greater than 100 µM.
Take `O=[N+]([O-])c1ccc(C2Nn3c(nnc3-c3cccc([N+](=O)[O-])c3)S2)cc1` (centres undefined): the TGI is greater than 100 µM.
`COc1ccc(-c2cc(-c3ccc(Cl)cc3)nc(SCCCC(=O)NO)n2)cc1OC`: the GI50 was 0.842 µM and the TGI was 7.33 µM.
Regarding `CC(=O)c1ccc(NC(=O)C(=O)CC(=O)c2sc(-n3nc(-c4ccccc4)cc3-c3ccccc3)nc2C)cc1`, the TGI was greater than 100 µM.
The compound `COC(=O)C1=C(C)N(NC(N)=O)C2(N)N(NC(N)=O)C(C)=C(C(=O)OC)C12C#N` (centres undefined) gave a TGI greater than 100 µM.
Still for that read-out and setting: under `C#CC(O)/C=C/C(O)CCCC(O)CC#CC(O)C#CCCCCC(O)/C=C/CCCCCC(=O)CCCCCCCCCCCCCC(O)C(O)C#CC(=O)O` (centres undefined) stands greater than 25 µM.
`O=C(O[C@H](/C=C/c1ccccc1)P1(=O)N(Cc2ccccc2)[C@H]2CCCC[C@@H]2N1Cc1ccccc1)c1ccccc1` had a TGI greater than 100 µM.
The same measure, in the same setting: under `NC(N)=NCCCC(Nc1c2ccccc2nc2ccccc12)C(=O)O` (centres undefined) stands greater than 100 µM.
Take `N#Cc1c(-c2ccccc2)nc(SCC(O)CN2CCOCC2)nc1N1CCOCC1` (centres undefined): the GI50 is 18.8 µM and the TGI was greater than 100 µM.
With `COC(=O)C1=C(N)C2=C(N)Oc3ccccc3C2CC1=C(C#N)C#N` (centres undefined), the TGI turned out to be 91.2 µM.
`C/C=C(/C)C(=O)OC1C=C(CO)C(=O)C(OC(=O)C2(C)OC2C)C1C(C)C` (centres undefined): the GI50 is 1.88 µM and the TGI is 3.61 µM.
For `CN1C(=O)[C@@H](CC2CCCC2)N(C2CCCC2)c2nc(Nc3cc(Cl)c(O)c(Cl)c3)ncc21`, the GI50 was 28.5 µM and the TGI is greater than 100 µM.
The compound `O=C1CCC2(c3ccccc3)OCC([C@@H](O)c3ccccc3)N12` (some centres undefined) showed a TGI greater than 100 µM.
For the compound `Cc1ccc(/C=C(/C#N)n2nnc3cccc(F)c32)cc1`, the GI50 is 1.53 µM and the TGI stood at 9.86 µM.
Take `CC(=O)CCC[C@@H](C)[C@@H]1O[C@H]([C@@]2(C)CCC(=O)O2)CC2[C@H]1OC(=O)C21CC1` (some centres undefined): the GI50 is greater than 100 µM and the TGI is greater than 100 µM.
Turning to `C=C(CC)C(=O)c1ccc(OCC(=O)O)c(Cl)c1Cl`, the TGI is greater than 100 µM.
On the same count and under the same terms, the figure for `Cn1c(=O)oc2cc(C(O)CN3CCN(Cc4ccc5c(c4)OCO5)CC3)ccc21` (centres undefined) is greater than 100 µM.
With `O=C(Nc1nc2ccc(OC(F)(F)F)cc2s1)c1ccc(F)cc1`, the GI50 was 4.44 µM and the TGI is 53.3 µM.
As to `Cc1cc(C)c([O-])c(-[n+]2c(-c3ccccc3)cc(-c3ccccc3)cc2-c2ccccc2)c1`, the TGI was 18.2 µM.
On the same count and under the same terms, under `Nc1nc(N)c2c(Cl)c(CNc3ccc(Cl)c(Cl)c3)ccc2n1` stands 15.3 µM; under `CCN(CC)CCC(=O)c1ccc(Cl)c(Cl)c1`, greater than 100 µM.
Compound `CN1CC=C(C#CC(C)(C)O)CC1` showed a TGI greater than 37.5 µM.
`CN1CCOC1(C)c1ccccc1` (centres undefined) gave a TGI greater than 100 µM.
In turn, `NC(=O)NC(=O)Nc1ccc(Br)cc1` returned a TGI greater than 39.6 µM.
The compound `CC(/C=C/c1ccccc1)=N\NC(=S)N/N=C(C)/C=C/c1ccccc1` gave a TGI greater than 100 µM.
For the compound `O=C1NC(=Nc2ccccc2Cl)N/C1=C\c1c(Cl)cccc1Cl`, the TGI was greater than 100 µM.
Compound `COc1ccc(NC(=O)CSc2nc(C)nc3c2sc(=S)n3-c2ccccc2)cc1` gave a TGI greater than 10 µM.
Still for that read-out and setting: the figure for `C#CCNCC(=O)O` is greater than 100 µM; for `COC(=O)c1cc(C#N)[nH]c1-c1ccc(Br)s1` it is 30.7 µM; for `COc1c(CC(C)=O)c2ccccc2n1C(C)=O` it is greater than 100 µM.
Turning to `CC(C)=NC(C(=O)O)C(C)(C)S` (centres undefined), the TGI is greater than 100 µM.
`COC(=O)CSc1cc(Cl)c(C)cc1S(=O)(=O)Nc1n[nH]c(N)n1` showed a TGI greater than 10 µM.
The same measure, in the same setting: under `CSc1ccccc1NC1=NCCO1` stands greater than 100 µM.
Consider `CCN(CC)CCN1C(=O)c2c(c3c4cccc(Cl)c4n(C4OC(CO)C(OC)C(O)C4O)c3c3[nH]c4c(Cl)cccc4c23)C1=O` (centres undefined), for which the GI50 was 0.000217 µM and < 0.0292 µM and < 0.01 µM.
Take `C[n+]1c(-c2ccc(/C=N\Nc3ccnc(N/N=C/c4ccc(-c5cn6ccsc6[n+]5C)cc4)n3)cc2)cn2ccsc21`: the TGI was greater than 100 µM.
Compound `COc1cc2c(SCCN(C)C)nc3ccccc3c2c2ccccc12` registered a TGI of 4.06 µM.
For the compound `CCN1CCCCCCCCCC(=N/O)/C(=N\O)C1`, the TGI is greater than 100 µM.
Take `Cc1c(C(=O)/C=C/c2ccc([N+](=O)[O-])cc2)[n+](=O)c2ccccc2n1[O-]`: the TGI was greater than 100 µM.
In turn, `Cc1c(CN2CCOCC2)c(CN2CCOCC2)c(C)n1-c1ccc(Cl)cn1` returned a TGI greater than 100 µM.
Take `N#Cc1ncc(-c2ccc(C(F)(F)F)cc2)c(NC2CCCCCC2)n1`: the GI50 is greater than 100 µM and the TGI is greater than 100 µM.
Take `Nc1nc2c(ncn2C2OC(CO)C(O)C2O)c(=O)o1` (centres undefined): the TGI was greater than 100 µM.
Same read-out and setting: under `Cc1ccc(S(=O)(=O)NCCCSCCN)cc1` stands greater than 100 µM.
Consider `C=CCc1cc(O)ccc1O`, for which the GI50 was 81.6 µM and the TGI was greater than 100 µM.
Compound `O=c1nc(N2CCCCC2)sc2[nH]c3ccccc3c12` showed a TGI greater than 100 µM.
`Cn1cc(Nc2nccc(-c3ccc4c(c3)CN(C3COC3)CC[C@H]4NC(=O)c3cn(C(C)(C)C)nn3)n2)cn1`: the GI50 is 65.3 µM and the TGI is greater than 100 µM.
The compound `CC1CN1c1c(C(=O)/C=C/c2ccc(F)cc2)c(-c2ccccc2)nn(C)c1=O` (centres undefined) returned a TGI of 32.7 µM.
Turning to `COc1ncnc2c(Cl)c(C(O)c3ccccc3)c(Cl)cc12` (centres undefined), the TGI was greater than 100 µM.
With `O=C1CC(=O)NC(=NN2C(=O)CSC2c2ccc(Cl)cc2)N1` (centres undefined), the TGI was greater than 100 µM.
Same read-out and setting: under `CN(C)CCNc1ncnc2nc(-c3ccccc3)c(-c3ccccc3)nc12` stands greater than 100 µM; under `COC(=O)c1ccccc1C1CN=NC12Cc1cc3c(cc1C2=O)CCC3` (centres undefined), greater than 100 µM.
As for `[CH3][Ge]([CH3])([CH2]CC#N)[S]c1ccccc1`, the GI50 was 70.5 µM and the TGI was greater than 100 µM.
Turning to `COc1ccc(C[C@@H]2OC3(C=CC(=O)CC3Sc3ccccc3)O[C@H]2Cc2ccc(OC)cc2)cc1` (some centres undefined), the TGI came out at 21.2 µM.
`CC(C)(Oc1cccc(N2CCC[C@@H](C(=O)N(Cc3ccc(-c4cn[nH]c4)cc3)C3CC3)C2)c1)C(=O)N1CCNCC1`: the GI50 was 13.8 µM and the TGI was found to be 28.2 µM.
In turn, `O=C(Nc1ccc(C(F)(F)F)cc1[N+](=O)[O-])C(=O)Nn1c(=S)[nH]c2ccccc2c1=O` yielded a TGI greater than 100 µM.
Still for that read-out and setting: the figure for `C=C1[C@@H](OC(C)=O)/C=C/C2C3C(=O)[C@@](C)(OC(C)=O)[C@H]([C@H](OC(C)=O)[C@]4(O)[C@@H](C)C(=O)O[C@H]4[C@H]1Cl)[C@@]23C` (some centres undefined) is greater than 100 µM; for `CS(=O)(=O)ON1C(=O)c2ccc(N)cc2C1=O` it is greater than 100 µM.
On the same count and under the same terms, the figure for `O=S(=O)(N=[Se](=O)(c1ccccc1)c1ccccc1)c1ccccc1` is greater than 100 µM.
Turning to `CC(=O)[CH-]C(=O)c1ccccc1.CC(=O)[CH-]C(=O)c1ccccc1.CC[C@H](CCC(C)[C@H]1CCC2[C@@H]3CC=C4C[C@@H]([O-])CC[C@]4(C)C3CC[C@@]21C)C(C)C.CC[C@H](CCC(C)[C@H]1CCC2[C@@H]3CC=C4C[C@@H]([O-])CC[C@]4(C)C3CC[C@@]21C)C(C)C.Cl.[Ti+4]` (some centres undefined), the TGI was greater than 25 µM.
With `CNc1ccc(C)cc1S(=O)(=O)c1ccccc1[N+](=O)[O-]`, the TGI is greater than 100 µM.
As to `Nc1ncc(-c2ccc3ncnc(N4CCc5cc(F)c(Cl)cc54)c3c2)cc1C=O`, the GI50 was 0.775 µM and the TGI is greater than 100 µM.
Regarding `Cc1cc(N(C)c2ccccc2)nc(N(C)c2ccccc2)n1`, the TGI was greater than 100 µM.
Still for that read-out and setting: the figure for `CC(C)(C)c1cc(Cc2ccc(S(C)(=O)=O)cc2)c(O)c(C(C)(C)C)c1` is 28 µM; for `O=c1c2ccccc2nc(-c2ccccc2)n1/N=C/c1ccccc1[N+](=O)[O-]` it is greater than 100 µM.
In turn, `Cc1cc2c(cc1Cl)SC(NNC(=O)c1ccccc1)=NS2(=O)=O` returned a TGI greater than 10 µM.
On to `Cc1cc2c3c(nc4ccccc42)C(=O)c2cccnc2-c3n1`, for which the GI50 is 0.165 µM and the TGI was determined as 1.1 µM.
`CCOC(=O)CCCc1cc(=O)c2c(C)c3[nH]c4ccc(Cl)cc4c3c(C)c2[nH]1` came in with a TGI greater than 100 µM.
`CCP(C)(=O)CC` yielded a TGI greater than 100 µM.

The values are drawn from PubChem BioAssay (NCI).
